# Experimental data: a collection of fitness landscapes (doi:10.1126/science.1257360)
# This is one part of the list.
# B1: PhoQ; a variant is named by its letters at X, in order, P23837 (parent)
# chain: MKKLLRLFFPLSLRVRFLLATAAVVLVLSLAYGMVALIGYSVSFDKTTFRLLRGESNLFYTLAKWENNKLHVELPENIDKQSPTMTLIYDENGQLLWAQRDVPWLMKMIQPDWLKSNGFHEIEADVNDTSLLLSGDHSIQQQLQEVREDDDDAEMTHSVAVNVYPATSRMPKLTIVVVDTIPVELKSSYMVWSWFIYVLSANLLLVIPLLWVAAWWSLRPIEALAKEVRELEEHNRELLNPATTRELTSLVRNLNRLLKSERERYDKYRTTLTDLTHSLKTPLXXLQXXLRSLRSEKMSVSDAEPVMLEQISRISQQIGYYLHRASMRGGTLLSRELHPVAPLLDNLTSALNKVYQRKGVNISLDISPEISFVGEQNDFVEVMGNVLDNACKYCLEFVEISARQTDEHLYIVVEDDGPGIPLSKREVIFDRGQRVDTLRPGQGVGLAVAREITEQYEGKIVAGESMLGGARMEVIFGRQHSAPKDE
# Variants of: B1
# Test: enrichment ratio after two sorts for PhoP signalling (ratio (wild type AVST 3.29)); higher = more functional
# Settings: with PhoP (E. coli)
row,Variant,enrichment ratio
1,STVS,6.89
2,GNPQ,≤ 0.25
3,HFFI,≤ 0.25
4,HPLY,≤ 0.25
5,SSGE,4.25
6,QRRV,≤ 0.25
7,RGLA,≤ 0.25
8,NTMN,≤ 0.25
9,DRPW,≤ 0.25
10,HEYP,≤ 0.25
11,EGCE,≤ 0.25
12,WITS,≤ 0.25
13,GACN,≤ 0.25
14,DKKL,≤ 0.25
15,DEFV,≤ 0.25
16,DFLS,≤ 0.25
17,NQCF,≤ 0.25
18,FPFY,≤ 0.25
19,AGVR,≤ 0.25
20,PPNL,≤ 0.25
21,YMSR,≤ 0.25
22,MAKG,≤ 0.25
23,DTFD,≤ 0.25
24,PSNL,≤ 0.25

row,Variant,enrichment ratio
1,HAPT,≤ 0.25
2,LLHF,≤ 0.25
3,VLGN,≤ 0.25
4,NSPA,≤ 0.25
5,ITTK,≤ 0.25
6,WDGH,≤ 0.25
7,IKAD,≤ 0.25
8,DRDC,≤ 0.25
9,LDNG,≤ 0.25
10,KFQR,≤ 0.25
11,SKEL,≤ 0.25
12,AILN,4.12
13,LMKC,≤ 0.25
14,IPPN,≤ 0.25
15,MRNR,≤ 0.25
16,YRPR,≤ 0.25
17,DHYL,≤ 0.25
18,TEPI,≤ 0.25
19,MFDN,≤ 0.25
20,DWQA,≤ 0.25
21,RLHR,≤ 0.25
22,NFHR,≤ 0.25
23,WNHP,≤ 0.25
24,DSMR,≤ 0.25

row,Variant,enrichment ratio
1,QQFL,1.12
2,RSIS,≤ 0.25
3,PRPG,≤ 0.25
4,RHLH,≤ 0.25
5,AISL,7.95
6,AREY,≤ 0.25
7,FRLY,≤ 0.25
8,WPHD,≤ 0.25
9,IQPE,≤ 0.25
10,LDKC,≤ 0.25
11,EGCS,≤ 0.25
12,FGWN,≤ 0.25
13,ETRL,≤ 0.25
14,QKNS,2.68
15,HIGH,≤ 0.25
16,LHDR,≤ 0.25
17,YYRK,≤ 0.25
18,YAAD,≤ 0.25
19,QDLN,≤ 0.25
20,FSDS,≤ 0.25
21,ATVP,≤ 0.25
22,DHYY,≤ 0.25
23,TCMG,11.4
24,WTYQ,≤ 0.25

row,Variant,enrichment ratio
1,WSKP,≤ 0.25
2,NVIN,≤ 0.25
3,FKMF,≤ 0.25
4,DNQM,≤ 0.25
5,SFWL,≤ 0.25
6,YFTK,≤ 0.25
7,PAGK,≤ 0.25
8,FLFS,≤ 0.25
9,YSGA,≤ 0.25
10,WRSS,≤ 0.25
11,PTKE,≤ 0.25
12,KFST,≤ 0.25
13,WFMW,≤ 0.25
14,DFSC,≤ 0.25
15,FTEA,≤ 0.25
16,SFIT,≤ 0.25
17,IHHI,≤ 0.25
18,IIEK,≤ 0.25
19,RAID,≤ 0.25
20,LSNN,≤ 0.25
21,EFNF,≤ 0.25
22,DLWA,≤ 0.25
23,RYRD,≤ 0.25
24,HEMV,≤ 0.25

row,Variant,enrichment ratio
1,HPFH,≤ 0.25
2,VDIC,≤ 0.25
3,QTLE,≤ 0.25
4,GEPC,≤ 0.25
5,TNTP,≤ 0.25
6,TNKQ,≤ 0.25
7,ISYD,≤ 0.25
8,LLMN,≤ 0.25
9,MYWD,≤ 0.25
10,YRYE,≤ 0.25
11,PPLS,≤ 0.25
12,HQND,≤ 0.25
13,FQPT,≤ 0.25
14,KLTV,≤ 0.25
15,HFRC,≤ 0.25
16,NKSN,≤ 0.25
17,KTEH,≤ 0.25
18,ANPT,≤ 0.25
19,FTYT,≤ 0.25
20,WQFM,≤ 0.25
21,YCRL,≤ 0.25
22,YVGD,≤ 0.25
23,YPHM,≤ 0.25
24,GWGE,≤ 0.25

row,Variant,enrichment ratio
1,LTKW,≤ 0.25
2,TGNG,23.3
3,GGYK,≤ 0.25
4,YWTT,≤ 0.25
5,QNVW,≤ 0.25
6,LERN,≤ 0.25
7,TMHG,13.3
8,EIPH,≤ 0.25
9,PVRW,≤ 0.25
10,DHWN,≤ 0.25
11,DCAH,≤ 0.25
12,AVNN,≤ 0.25
13,KDDY,≤ 0.25
14,LLQF,≤ 0.25
15,FSLL,13.5
16,SYAL,≤ 0.25
17,AYYS,≤ 0.25
18,DATR,≤ 0.25
19,PFSL,≤ 0.25
20,AKPI,≤ 0.25
21,SRAY,≤ 0.25
22,IMLD,≤ 0.25
23,FPLI,≤ 0.25
24,WCLC,≤ 0.25

row,Variant,enrichment ratio
1,GAHR,≤ 0.25
2,HLKR,≤ 0.25
3,IAHK,≤ 0.25
4,VNGC,≤ 0.25
5,GFEM,≤ 0.25
6,PWLP,≤ 0.25
7,NPLN,≤ 0.25
8,MYSY,≤ 0.25
9,TDST,3.38
10,FFDV,≤ 0.25
11,DSVS,≤ 0.25
12,ATWF,≤ 0.25
13,QRVY,≤ 0.25
14,VHCS,≤ 0.25
15,MYKL,≤ 0.25
16,CYAF,≤ 0.25
17,YFPK,≤ 0.25
18,TTGD,0.456
19,GCSY,≤ 0.25
20,RCHE,≤ 0.25
21,QGAQ,3.05
22,HGPD,≤ 0.25
23,KPSA,≤ 0.25
24,MHAC,≤ 0.25

row,Variant,enrichment ratio
1,RTFR,≤ 0.25
2,QNAQ,≤ 0.25
3,ELNW,≤ 0.25
4,WCGF,≤ 0.25
5,VPSW,≤ 0.25
6,SAKC,≤ 0.25
7,LAIS,≤ 0.25
8,QRII,≤ 0.25
9,PYPD,≤ 0.25
10,LVNS,≤ 0.25
11,PPIG,≤ 0.25
12,SDFM,≤ 0.25
13,VYSV,≤ 0.25
14,WHWH,≤ 0.25
15,MSLN,4.44
16,AQQQ,≤ 0.25
17,GVIM,19.3
18,DSWW,≤ 0.25
19,IMSN,≤ 0.25
20,SFTG,5.29
21,FIHS,≤ 0.25
22,KDVL,≤ 0.25
23,NINR,≤ 0.25
24,DSYM,≤ 0.25

row,Variant,enrichment ratio
1,ACAY,3.43
2,YACV,≤ 0.25
3,DAGL,≤ 0.25
4,CRYS,≤ 0.25
5,FSKH,≤ 0.25
6,VKMQ,≤ 0.25
7,TFFM,≤ 0.25
8,GTQW,≤ 0.25
9,DYKG,≤ 0.25
10,EYCM,≤ 0.25
11,QDFG,≤ 0.25
12,KYCP,≤ 0.25
13,EGKI,≤ 0.25
14,SFWM,≤ 0.25
15,MCLQ,3.13
16,YHWP,≤ 0.25
17,DIMN,≤ 0.25
18,WERC,≤ 0.25
19,TAMH,8.01
20,EASW,≤ 0.25
21,MIGP,≤ 0.25
22,FFHW,≤ 0.25
23,EVDV,≤ 0.25
24,WYGV,≤ 0.25

row,Variant,enrichment ratio
1,WDHA,≤ 0.25
2,ATTI,13.7
3,RPFQ,≤ 0.25
4,EIQD,≤ 0.25
5,LQFC,≤ 0.25
6,PWNS,≤ 0.25
7,ICNH,≤ 0.25
8,RDLC,≤ 0.25
9,LCDK,≤ 0.25
10,FRCH,≤ 0.25
11,MTIA,≤ 0.25
12,HSMK,≤ 0.25
13,LHKV,≤ 0.25
14,VFRD,≤ 0.25
15,DVHQ,≤ 0.25
16,DLVF,≤ 0.25
17,HVMI,≤ 0.25
18,YFIC,≤ 0.25
19,ERAQ,≤ 0.25
20,WHIL,≤ 0.25
21,LPEI,≤ 0.25
22,REYI,≤ 0.25
23,VPNE,≤ 0.25
24,VPFM,≤ 0.25

row,Variant,enrichment ratio
1,MTEV,≤ 0.25
2,MCDL,≤ 0.25
3,FKSQ,≤ 0.25
4,GFDL,≤ 0.25
5,ITTD,≤ 0.25
6,PQDM,≤ 0.25
7,NPTN,≤ 0.25
8,MVHS,≤ 0.25
9,DMNN,≤ 0.25
10,FYMT,≤ 0.25
11,QFWE,≤ 0.25
12,PFKE,≤ 0.25
13,MRND,≤ 0.25
14,YMIH,≤ 0.25
15,EAPP,≤ 0.25
16,DQDR,≤ 0.25
17,DIEK,≤ 0.25
18,IFTG,≤ 0.25
19,EGQP,≤ 0.25
20,HDSM,≤ 0.25
21,DAWF,≤ 0.25
22,SIQL,13.1
23,KFGF,≤ 0.25
24,PDFQ,≤ 0.25

row,Variant,enrichment ratio
1,FAKC,≤ 0.25
2,YGVY,≤ 0.25
3,YQMQ,≤ 0.25
4,GCPH,≤ 0.25
5,WMSS,≤ 0.25
6,GMAM,24.3
7,KHRC,≤ 0.25
8,MCVQ,≤ 0.25
9,DACQ,≤ 0.25
10,RWDK,≤ 0.25
11,QAWD,≤ 0.25
12,PIYL,≤ 0.25
13,FMLE,≤ 0.25
14,VSEH,≤ 0.25
15,ILMT,≤ 0.25
16,YWVN,≤ 0.25
17,PMKF,≤ 0.25
18,AMWS,≤ 0.25
19,LPST,≤ 0.25
20,AGAI,8.77
21,ATGK,≤ 0.25
22,LWQV,≤ 0.25
23,YSLE,6.07
24,PHIA,≤ 0.25

row,Variant,enrichment ratio
1,RYND,≤ 0.25
2,VNAL,3.91
3,THKD,≤ 0.25
4,PYDH,≤ 0.25
5,GEIT,≤ 0.25
6,RMSA,≤ 0.25
7,GFVS,≤ 0.25
8,YRAV,≤ 0.25
9,VMRG,≤ 0.25
10,MQFH,9.86
11,RGKH,≤ 0.25
12,IKMT,≤ 0.25
13,PGHT,≤ 0.25
14,QNLV,≤ 0.25
15,PWHC,≤ 0.25
16,RPDW,≤ 0.25
17,DFCF,≤ 0.25
18,AMDD,≤ 0.25
